Results: PubChem BioAssay AID1508624 (National Center for Advancing Translational Sciences (NCATS), 2021)
In all, about 48,000 compounds went through this assay and about 120 (0.25%) were called active. About 4% were inconclusive and are not listed. The call rests on the fitted dose curve; in most records, active means well fitted activation curve with a large enough effect; inconclusive means small, poorly fitted or top-dose-only effect, or another doubt; inactive means no such curve, though single readings can be large or run the other way. This is one part of the list.

Test: Primary qHTS for Identification of Small Molecule Activators of Huntingtin-Antisense Promoter Activity; further: nearly all actives have a fitted effect of over 55% in size
Details: HEK293 HTT-AS promoter firefly luciferase reporter, 24 h; series mostly up to 57.5 µM; activity change, positive = activation: at the top concentration
Text: Assay Provider: Russell L. Margolis M.D.
Department Neurology, Johns Hopkins University School of Medicine, Baltimore, MD
Huntington's Disease (HD) is a neurodegenerative disorder caused by a CAG repeat expansion in exon 1 of huntingtin (HTT). While there are currently no disease-modifying treatments for HD, recent efforts have focused on development of nucleotide-based therapeutics to lower HTT expression. As an alternative to siRNA or oligonucleotide methods, we hypothesized that suppression of HTT expression might be accomplished by small molecules that either (1) directly decrease HTT expression by suppressing HTT promoter activity or (2) indirectly decrease HTT expression by increasing the promoter activity of HTT-AS, the gene antisense to HTT that appears to inhibit expression of HTT.
We developed and employed a high throughput screen for modifiers of HTT and HTT-AS promoter activity using luminescent reporter HEK293 cells; of the 52,041 compounds tested, we identified 898 replicable hits. We used a rigorous stepwise approach to assess compound toxicity and the capacity of the compounds to specifically lower huntingtin protein in 5 different cell lines, including HEK293 cells, HD lymphoblastoid cells, mouse primary neurons, HD iPSCs differentiated into cortical-like neurons, and HD hESCs. We found no compounds which were able to lower huntingtin without lowering cell viability in all assays, though the potential efficacy of a few compounds at non-toxic doses could not be excluded.
SEQUENCE No. (1, 2, 3, etc.); […] (e.g., Cells, Incubation, Reagent, etc.); VALUE and DESCRIPTION.
1; Reagent; 4 uL; 2,500 Hek293 luciferase reporter cells per wells
3; Compound; 23 nL; Control inhibitor / compound library
5; Reagent; 2.5 uL; Firefly Luc reagent; Dual-Glo Luciferase Reporter Assay System (Promega)
6; Time; 10 min; room temperature incubation
7; Detection; Luminescence; FLuc
NOTES (numbers refer to sequence above)
1; High-throughput screening, measuring luminescence from a Hek293 luciferase reporter, was performed in 1,536 well white-walled tissue-culture treated plates. 2,500 cells were plated in 4 µL of Opti-MEM per well using a Multidrop Combi Reagent Dispenser (ThermoFisher).
2; Assay plates were cultured for 24 hours.
3; Control inhibitor (PTC124; final concentration of 50 uM) and compound library (at final concentrations of 460 nM - 57.5 uM) were added to the assay plate using the Kalypsis Pintool Robotic System equipped with 1536 pinheads.
4; Cells were then incubated for 24 hours at 37 degrees C prior to luminescence measurements.
5; In all cases, luminescence was measured using the Dual-Glo Luciferase Reporter Assay System (Promega) following the manufacturer's instructions.
6; Room temperature incubation.
7; Luminescence signal was obtained using the PerkinElmer ViewLux plate reader. Results were normalized to vehicle control (0% activity) and zero RLU (-100% activity).
Potency means the concentration at half of the fitted maximal effect.

SMILES	activity change, positive = activation	Potency
O=C(NCc1noc2ccccc12)N1CCN(c2ccccc2F)CC1	inactive: 5.43%	
CCN(Cc1ccccc1)Cc1c(O)ccc2c(=O)c(-c3ccccc3Cl)coc12	inactive: -12.6%	
CCn1cc(C(=O)NCCCOC(C)C)c(=O)c2cc(S(=O)(=O)N(C)C3CCCCC3)ccc21	inactive: -25.2%	
CCOC(=O)c1c(-c2ccccc2)csc1NC(=O)c1cc(-c2cccc(Cl)c2)on1	inactive: -1.99%	
Cc1ccc(C)c(N2CCN(S(=O)(=O)c3ccc4c(c3)n(C)c(=O)c(=O)n4C)CC2)c1	inactive: 0.615%	
O=C(NCc1ccccc1)c1ccc(Cn2c(=O)c3cccn3c3cccnc32)cc1	inactive: -6.97%	
CC(=O)c1cccc(NC(=O)c2ccc3c(c2)c(C)c(C)n3Cc2ccc(Cl)cc2)c1	inactive: -14.6%	
COc1cc(OC)c(NC(=O)CSCc2nc(-c3ccc(OC)c(OC)c3)no2)cc1Cl	inactive: -2.71%	
COCCCC/C(=N\OCCN)c1ccc(C(F)(F)F)cc1	inactive: -14.2%	
O=C(Nc1cc(-c2nc3cc(Cl)ccc3o2)ccc1Cl)c1cc2ccccc2o1	inactive: 7.57%	
CCOc1ccccc1CNC(=O)c1ccc2nc(CCc3ccccc3)oc2c1	inactive: -13.4%	
CC(C)(C)COc1ccc(-n2cc(C(=O)O)cn2)cc1C#N	inactive: -77.9%	
COC(=O)[C@H](c1ccccc1Cl)N1CCc2sccc2C1	inactive: -45.4%	
CCOc1ccccc1NC(=O)CN1Cc2ccccc2C1=O	inactive: 0.373%	
C[C@]12CCC(=O)C=C1CC[C@@H]1[C@@H]2C(=O)C[C@@]2(C)[C@H]1CC[C@]2(O)C(=O)CO	inactive: -7.2%	
COC(=O)c1ccc(CN(Cc2ccc(OC)c(OC)c2)S(=O)(=O)c2ccc(F)c(C(=O)Nc3cc(C)ccc3C)c2)cc1	inactive: -15%	
CC(Oc1ccccc1)C(=O)Nc1ccc(C(=O)OCc2cc(=O)n3ccsc3n2)cc1 (stereo not given)	inactive: -15.1%	
Cc1cccc(C(=O)NCC(=O)OCc2cc(=O)n3nc(C)sc3n2)c1	inactive: -4.92%	
N#Cc1nc(/C=C/c2ccc(F)cc2)oc1N1CCCCC1	inactive: 11.2%	
Cc1cccc(Nc2cc(C)nc3nc(Cc4ccc(Cl)cc4)nn23)c1	inactive: -27.7%	

SMILES	activity change, positive = activation	Potency
CCCOc1ccccc1C(=O)Nc1ccc(-c2nc3ccc(C)cc3s2)cc1		active: 2240 nM
CCOC(=O)c1ccc(NC(=O)Cn2cc(S(=O)(=O)Cc3ccccc3F)c3ccccc32)cc1	inactive: -31.3%	
Cc1cc(-c2ccccc2)nc2cc(C(=O)Nc3cc(C(F)(F)F)ccc3Cl)nn12	inactive: -1.03%	
COc1ccc(CNC(=O)c2ccc3c(Cl)c4c(nc3c2)CCCC4)c(OC)c1	inactive: -19%	
Cc1nc(SCC(=O)Nc2ccc(Cl)cc2C(F)(F)F)[nH]c(=O)c1Cc1ccccc1	inactive: -9.47%	
Cc1ccc(Cn2cc3c(n2)-c2c(oc(C(=O)Nc4ccc(F)cc4F)c2C)CC3)cc1	inactive: -2.56%	
O=C(CSc1nc2c([nH]c3ccccc32)c(=O)n1-c1ccc(F)cc1)NCc1ccco1	inactive: -32.7%	
CC1=C(C(=O)Nc2cc(Cl)ccc2C)C(c2ccco2)n2ncnc2N1 (stereo not given)	inactive: -14.4%	
CCSc1nnc2c(n1)OC(c1sccc1C)N(C(C)=O)c1ccccc1-2 (stereo not given)	inactive: -31.1%	
O=C(NCc1cccc(F)c1)c1ccc2nc(N3CCCCC3)sc2c1	inactive: -19.7%	
CCOC(=O)C1CCCN(S(=O)(=O)c2cc3c(cc2C)NC(=O)CO3)C1 (stereo not given)	inactive: -16.4%	
Cc1ccc(OCC(=O)Nc2ccc3nc(SCC(N)=O)sc3c2)cc1	inactive: -9.51%	
COc1ccc(Cn2c(=O)c3oc4ccccc4c3n(Cc3cccc(F)c3)c2=O)cc1	inactive: -37.6%	
COC(=O)c1c(C)oc2ccc(N(C(=O)Oc3ccccc3)S(=O)(=O)c3ccc(C(C)(C)C)cc3)cc12	inactive: -26.9%	
O=C(NCCc1ccc(Cl)cc1)c1ccc2c(c1)N(Cc1c(F)cccc1Cl)C(=O)CS2	inactive: -32.3%	
Cc1c(C)n(C)c2ccc(C(=O)NCCc3ccc(Cl)cc3)cc12	inactive: 1.97%	
Cc1ccc(NC(=O)C2CCCN(S(=O)(=O)c3c(C)n[nH]c3C)C2)cc1Cl (stereo not given)	inactive: -44.5%	
Cc1nn(-c2ccc(F)cc2)c(-n2cccc2)c1C(=O)N1CCN(c2ccccc2F)CC1	inactive: -6.88%	
Cc1c(C(=O)Nc2ccc(F)c(F)c2)oc2ccc(S(=O)(=O)N3CCC4(CC3)OCCO4)cc12	inactive: -41.5%	
O=C(Nc1c(-c2ccc(F)cc2)nc2ccccn12)c1cccc(F)c1	inactive: -9.28%	

SMILES	activity change, positive = activation	Potency
CC(=O)Nc1ccc(NS(=O)(=O)c2ccc(Cl)s2)cc1	inactive: -19.1%	
COc1ccccc1CNC(=O)CN(c1ccc(C)cc1)S(=O)(=O)c1c(C)noc1C	inactive: -21.2%	
NC(=O)N1CCC(CC(=O)N2CCC([C@H]3c4ncc(Br)cc4CCc4cc(Cl)cc(Br)c43)CC2)CC1	inactive: -38%	
CCOc1ccc(C(=O)c2cn(Cc3ccccc3)c3c(F)cc(F)cc3c2=O)cc1	inactive: -31%	
CCCCc1ccc(NS(=O)(=O)c2ccc(N3CCCCS3(=O)=O)cc2)cc1	inactive: 16%	
COc1ccc(OC)c(NC(=O)c2cnc(N3CCCC3)nc2C)c1	inactive: 0.416%	
CCSc1ncc(Cl)c(C(=O)N(Cc2ccccc2)Cc2ccco2)n1	inactive: -41.9%	
CCCOc1ccc(NC(=O)CC2C(=O)N(c3ccc(C)cc3)C(=O)N2C2CCCC2)cc1 (stereo not given)	inactive: 6.86%	
O=C(Nc1ccc(Cl)cc1)c1cc2nc(-c3ccc4c(c3)OCO4)cc(C(F)(F)F)n2n1	inactive: 5.85% [at 11.5 µM, percent change from vehicle, -100% = no light]	
CCn1c(=O)n(-c2cccc(Cl)c2)c(=O)c2sc3ccccc3c21	inactive: -4.87%	
CCc1nn(CC(=O)N2CCN(c3ccc(Cl)cc3)CC2)c(=O)c2cc3occc3n12	inactive: -9.42%	
COc1ccc(C(=O)Nc2ccccc2-c2nc(-c3ccc(OC)cc3)no2)cc1	inactive: 2.73%	
O=C(c1cnc(N2CCCCC2)c2ccccc12)N1CCN(c2ccc(Cl)cc2)CC1	inactive: -36.6%	
COc1ccc(OC)c(/C=C(\C#N)c2nc3ccccc3c(=O)[nH]2)c1	inactive: -3.42%	
O=C(CCC(=O)c1ccccc1)Nc1ccc(F)c(Cl)c1	inactive: -6.6%	
COc1ccc(CCN2CC(C(=O)NCCc3ccccc3)CC2=O)cc1OC (stereo not given)	inactive: 3.54%	
Cc1ccc(C)c(S(=O)(=O)NCCc2csc(-c3ccc(Cl)cc3)n2)c1	inactive: -35.9%	
O=S(=O)(NCCS(=O)(=O)N1CCN(c2ccccc2)CC1)c1ccc(Cl)cc1	inactive: -3.11%	
Cc1cccc(NC(=O)C2CCCN(S(=O)(=O)c3ccc4c(c3)oc(=O)n4C)C2)c1 (stereo not given)	inactive: -31.3%	
Cc1sc2c(c1C)c(=O)n(CCc1ccccc1)c(=O)n2Cc1ccc(F)cc1	inactive: 0.487%	
